SMILES strings stand for the structures. In all, about 110,000 compounds were measured (“z-score”: median about -0.1, highest 2% from about 2 on). This is one part of the list.

This assay addresses Metabotropic glutamate receptor 8 (Rattus norvegicus) (UniProt P70579). The assay is described as follows: rat mGluR8 modulators via GIRK flux, primary screen, cell-based, thallium flux, HTS (AID 488969). The conditions noted are these: HEK293 rat mGluR8, GIRK (G protein-gated inwardly rectifying potassium channel) thallium flux, FluoZin2; at 10 µM; stronger effect = higher value; submaximal glutamate (EC20) added with thallium.
UniProt P70579, sequence (P70579 whole entry, looked up): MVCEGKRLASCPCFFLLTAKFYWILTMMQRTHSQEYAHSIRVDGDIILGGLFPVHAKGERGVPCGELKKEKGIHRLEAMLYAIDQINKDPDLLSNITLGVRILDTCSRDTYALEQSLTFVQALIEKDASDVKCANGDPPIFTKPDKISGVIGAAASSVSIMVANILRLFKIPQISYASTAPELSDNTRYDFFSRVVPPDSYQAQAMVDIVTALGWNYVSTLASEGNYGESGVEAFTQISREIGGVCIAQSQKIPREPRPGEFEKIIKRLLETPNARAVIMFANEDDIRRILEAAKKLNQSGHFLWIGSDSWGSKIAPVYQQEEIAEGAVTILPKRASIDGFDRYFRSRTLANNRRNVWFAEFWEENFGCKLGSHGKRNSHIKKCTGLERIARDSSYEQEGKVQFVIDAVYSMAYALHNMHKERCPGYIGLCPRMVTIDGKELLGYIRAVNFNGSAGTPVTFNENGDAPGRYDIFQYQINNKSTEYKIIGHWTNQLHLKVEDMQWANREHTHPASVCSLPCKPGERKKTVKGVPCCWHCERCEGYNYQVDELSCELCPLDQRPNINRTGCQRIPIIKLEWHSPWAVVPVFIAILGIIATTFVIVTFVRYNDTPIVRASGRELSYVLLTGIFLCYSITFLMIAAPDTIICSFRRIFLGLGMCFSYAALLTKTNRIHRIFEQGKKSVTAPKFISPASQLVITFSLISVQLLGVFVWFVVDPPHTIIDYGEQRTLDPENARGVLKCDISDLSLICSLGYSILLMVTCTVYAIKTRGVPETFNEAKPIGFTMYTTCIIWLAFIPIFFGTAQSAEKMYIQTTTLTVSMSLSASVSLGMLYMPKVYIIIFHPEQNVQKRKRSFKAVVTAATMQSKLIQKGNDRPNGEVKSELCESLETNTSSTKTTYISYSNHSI
As to `Cc1ccc(NC(=S)N2CCC(c3nc4ccccc4s3)CC2)cc1C`, the z-score was -0.482.

`CCSC1=N/C(=C/c2ccsc2)C(=O)N1c1ccccc1`: the z-score is -0.016. Compound `Cc1c(NC(=O)c2cccc(NC(=O)c3ccco3)c2)cccc1C(=O)O` returned a z-score of -0.0668. The same measure for `Cc1occc1C(=O)N/N=C/c1cnn(C)c1C`: -0.5.

`C=CCNC(=S)Nc1cccc(NC(=S)NCC=C)c1` showed a z-score of -0.329. `CC1CCCCC1NC(=O)COc1ccc(-n2cnnn2)cc1` (configuration not stated) yielded a z-score of 0.0113. The same measure for `CC1CCCN(c2nc3ccsc3c(=O)s2)C1` (configuration not stated): 0.174. For the compound `CCN(CC(=O)NCCc1ccc(S(N)(=O)=O)cc1)Cc1nc2cc(OC)c(OC)cc2c(=O)[nH]1`, the z-score is -0.0839. The same measure for `Cn1c(SCC(=O)N2CCCC2)nnc1-c1ccc(S(=O)(=O)N2CCCC2)cc1`: -0.428; for `Cc1ccc(C(=O)OCC(=O)Nc2sccc2C(N)=O)cc1NC(=O)c1ccco1`: -0.747; for `CCCc1ccc(-c2cc(C(=O)NC3=NCCS3)c3ccccc3n2)cc1`: -0.175.

The compound `O=S(=O)(c1ccc(-c2csc(-c3cccnc3)n2)cc1)N1CCCC1` came in with a z-score of -0.311.

Take `CCOC(=O)c1[nH]c(C)c(CN(Cc2ccco2)C(=O)C(F)(F)F)c1C`: the z-score was 0.0968.

As to `Cc1ccc(C(=O)Oc2coc(CSc3nnc(NC(=O)C4CC4)s3)cc2=O)cc1`, the z-score came out at 0.219. For the compound `COc1ccc(S(=O)(=O)NC2CCCC2)c(Cl)c1Cl`, the z-score is -0.285.

Take `Nc1nnc(CC(=O)N/N=C/c2ccc(-c3ccccc3)o2)s1`: the z-score was -0.284.

In the case of `O=C(/C=C/c1ccc(-c2ccccc2[N+](=O)[O-])o1)c1ccccc1`, the z-score was -0.156. `CCc1[nH]c(=O)c(C#N)c2c1COC(C)(C)C2` returned a z-score of 0.0687. The figure for `CCOC(=O)c1csc(NC(=O)c2ccc(S(=O)(=O)N(CC)CC)cc2)n1` is -0.407; for `CCn1c(=O)[nH]c2ccccc2c1=O` it is 0.0176; for `CC1(C)CC(C)(O)N(Cc2ccccc2)C(=S)N1` (configuration not stated) it is 1.2.

In turn, `CCOC(=O)C1CCCN(Cc2nc(N)nc(Nc3ccc(Cl)cc3)n2)C1` (configuration not stated) returned a z-score of -0.508.

`COc1ccc(C(=O)NCCCN2CCOCC2)cc1OC`: the z-score was -0.193. The compound `Cc1cccc(-n2c(CCn3nc(C)c([N+](=O)[O-])c3C)n[nH]c2=S)c1` showed a z-score of -0.129. The same measure for `O=C(NC1CCCCC1)N1CCCC1`: 0.37; for `CCOC(=O)c1cccc(NC(=O)/C(=C\c2ccccc2)NC(=O)c2ccccc2Cl)c1`: -0.208; for `CCCOc1ccc(C(=O)c2nc3c(n2O)CCCCC3)cc1`: 0.0386.

As to `O=C(CC1SC2=NCCN2C1=O)Nc1ccc(Cl)cc1` (configuration not stated), the z-score was determined as 0.137. The same measure for `CC1(C)CC(=O)C2=C(C1)NC(Nc1nc3ccccc3o1)=NC21CCCC1`: -0.199. The figure for `O=c1[nH]c(-c2ccccc2F)nc2c1sc(=S)n2Cc1ccccc1` is -0.139; for `CCOC(=O)c1c(C)nc2c(c1-c1ccccc1)C(=O)c1ccccc1-2` it is -0.384; for `O=C1CCC(C(=O)OCc2ccccc2)N1` (configuration not stated) it is 1.22.

The compound `CCn1cc(C(=O)N=c2sc3ccccc3n2C)c(=O)c2ccc(C)nc21` had a z-score of -0.387.

Consider `CC(Oc1ccc(Cl)cc1Cl)C(=O)Nc1ncccn1` (configuration not stated), for which the z-score is -2.15. The figure for `CCOc1cccc(=O)c2c(C)oc(C)c12` is -0.298; for `N#Cc1ccccc1OCC(=O)NC(N)=O` it is 0.00914.

`CCn1ncc(/C=N/O)c1C` yielded a z-score of -0.443. The figure for `O=C1C(C23CC4CC(CC(C4)C2)C3)C(=O)N(c2ccccc2)N1c1ccccc1` is 0.139; for `O=c1c2c(-c3cccs3)csc2ncn1-c1ccccc1` it is -0.0624; for `NC(=O)c1cc(-c2ccccc2)sc1NC(=O)CN1CCCCC1` it is 0.0407. As to `COc1cc(-c2nnc(SCc3c(F)cccc3Cl)o2)cc(OC)c1OC`, the z-score was -0.215. The figure for `Cc1ccc(C)c(NC(=S)NNC(=O)c2ccc(Br)o2)c1` is 0.537; for `Clc1ccc(OCc2nnc(SCc3nc4ccccc4[nH]3)n2Cc2ccco2)cc1` it is -0.306. In turn, `CNc1nc(-c2ccccc2)cc(C(F)(F)F)c1C#N` yielded a z-score of -0.14. As to `O=C1C2C(c3ccccc3)C=CC(c3ccccc3)C2C(=O)N1c1cccnc1` (configuration not stated), the z-score is -0.117.

`Cc1ccc(C(=O)Nc2ccncc2)o1`: the z-score was 0.107. In turn, `Cc1ccc(C(=O)N2CC3(C)CN(C(=O)c4ccc(C)cc4)CC(C)(C2)C3=O)cc1` came in with a z-score of -0.128. Turning to `O=C(Cn1c(NCCO)nc2ccccc21)NCCc1ccccc1`, the z-score was -1.04. The figure for `COc1ccc(NC(=O)CNS(=O)(=O)c2ccccc2)cc1Cl` is 0.563.

`N#CC1=C(N)N(c2ncn[nH]2)C2=C(C(=O)CCC2)C1c1ccc(F)cc1` (configuration not stated) showed a z-score of -0.0439. The figure for `COc1nc(Cl)cn(-c2ccc(C)cc2)c1=O` is -0.0681. The same measure for `C=CCn1c(SCC(=O)NC2CCCCC2)nnc1-c1sc(N)nc1C`: -0.0778. The same measure for `COc1cccc(-c2cc(C(F)(F)F)nc(N3CCN(c4ccccc4)CC3)n2)c1`: -1.21; for `CC(C)(C)c1ccc(C(=O)c2c[nH]c(C(=O)NCc3cccnc3)c2)cc1`: -0.286; for `C=CCSc1nnc(-c2cc3c(s2)-c2ccccc2CC3)o1`: -0.128. `O=C(NCc1ccccc1)C1CC(=O)N(c2ccc(OCC(=O)N3CCCC3)cc2)C1` (configuration not stated) came in with a z-score of -0.544. The same measure for `COc1cc2c(cc1OC)CN(Cc1cc(=O)oc3cc(C)c(C)cc13)CC2`: 0.756; for `Cc1ccccc1-n1c(C)nc2ccccc21`: -1.67; for `CCOCCCNc1nc2c(C)cccn2c(=O)c1/C=C1\SC(=S)N(CC(C)C)C1=O`: -0.00528. The same measure for `Cc1c(NC(C)c2ccccc2O)c(=O)n(-c2ccccc2)n1C` (configuration not stated): 0.152. The same measure for `Cc1ccc(N2C(=O)CN(Cc3sccc3C)C2=S)cc1C`: 0.0203; for `C=CCN1C(=O)/C(=C/c2ccc(O)c(OC)c2)S/C1=N/c1nccs1`: -0.0981.

`Cc1ccc(-n2c(C)cc(/C=N/NC(N)=S)c2C)cc1` returned a z-score of -0.0027. As to `CCc1cccc(CC)c1NC(=S)N1CCn2cccc2C1c1cccnc1` (configuration not stated), the z-score came to 0.37. The same measure for `Cc1ccc(-n2c(N)c(C(=O)Nc3c(C)n(C)n(-c4ccccc4)c3=O)c3nc4ccccc4nc32)cc1`: -0.373; for `O=C(Nc1cc(=O)c2ccccc2o1)N1CCOCC1`: 0.0681; for `CCc1cccc(NC2c3ccccc3C(=O)N2c2ccc(C)cn2)c1` (configuration not stated): -0.5. The figure for `O=C(CS(=O)CC(=O)Nc1cccc2c1CCCC2)Nc1ccc(F)cc1` (configuration not stated) is -0.101.

In turn, `N#Cc1c(Sc2ncc(C(F)(F)F)cc2Cl)nsc1C/C=N\OCc1ccccc1Br` gave a z-score of -0.103. The figure for `CCCCn1nnc(NC(=O)c2ccco2)n1` is -0.115; for `CN(C)S(=O)(=O)c1ccc(C(=O)Nc2nc(-c3cccs3)cs2)cc1` it is 0.434; for `CCOC(=O)c1cnc(SC2CC(=O)N(c3ccc(OC)c(OC)c3)C2=O)nc1N` (configuration not stated) it is -0.0718.

For the origin of these results see PubChem BioAssay AID488969 (Vanderbilt High Throughput Screening Facility, 2010).
